# Data: article PMC4336329 (PLoS ONE, 2015)
# Screen size: about 310,000 compounds; about 14,000 (4.5%) showed an effect of 50% or more. The effect is printed as a negative number. The list shows a part of the results.
# Target: human ether-à-go-go-related gene (hERG) potassium channel (human, UniProt Q12809)
# Assay: primary screen, population patch clamp on CHO cells stably expressing hERG
# 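Note: peak tail current of the secondary pulse compared with the same well before compound.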
# Sequence of human ether-à-go-go-related gene (hERG) potassium channel (Q12809 whole entry, looked up): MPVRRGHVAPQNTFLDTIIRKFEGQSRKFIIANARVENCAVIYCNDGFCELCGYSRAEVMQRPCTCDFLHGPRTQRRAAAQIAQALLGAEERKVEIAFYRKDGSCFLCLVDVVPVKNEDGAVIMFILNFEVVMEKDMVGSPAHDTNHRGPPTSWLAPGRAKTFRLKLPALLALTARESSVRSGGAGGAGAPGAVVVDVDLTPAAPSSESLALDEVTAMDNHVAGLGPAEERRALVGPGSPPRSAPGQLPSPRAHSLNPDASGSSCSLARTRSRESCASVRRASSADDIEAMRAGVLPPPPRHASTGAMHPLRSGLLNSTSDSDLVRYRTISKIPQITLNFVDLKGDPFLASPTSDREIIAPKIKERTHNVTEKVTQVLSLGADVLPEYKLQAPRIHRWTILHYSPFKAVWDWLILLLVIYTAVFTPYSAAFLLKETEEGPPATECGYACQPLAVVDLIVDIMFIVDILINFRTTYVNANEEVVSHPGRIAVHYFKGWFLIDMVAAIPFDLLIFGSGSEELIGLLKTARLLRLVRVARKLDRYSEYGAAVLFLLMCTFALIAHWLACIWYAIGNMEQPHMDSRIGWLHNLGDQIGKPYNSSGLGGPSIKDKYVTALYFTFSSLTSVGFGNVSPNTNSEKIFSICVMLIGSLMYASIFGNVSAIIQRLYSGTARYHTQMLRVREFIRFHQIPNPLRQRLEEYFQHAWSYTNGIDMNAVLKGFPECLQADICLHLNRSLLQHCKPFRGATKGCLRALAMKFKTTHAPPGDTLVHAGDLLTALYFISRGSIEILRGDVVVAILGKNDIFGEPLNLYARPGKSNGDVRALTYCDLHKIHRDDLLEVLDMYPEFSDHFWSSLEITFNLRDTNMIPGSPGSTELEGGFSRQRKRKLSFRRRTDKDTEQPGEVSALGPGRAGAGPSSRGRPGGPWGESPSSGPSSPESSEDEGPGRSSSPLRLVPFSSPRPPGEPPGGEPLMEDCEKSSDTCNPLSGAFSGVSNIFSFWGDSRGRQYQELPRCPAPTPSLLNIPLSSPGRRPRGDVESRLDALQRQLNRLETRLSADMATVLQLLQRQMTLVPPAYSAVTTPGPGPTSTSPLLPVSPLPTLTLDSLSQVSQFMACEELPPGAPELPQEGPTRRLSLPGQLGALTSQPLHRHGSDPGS
row,SMILES,"hERG current change (%, negative = inhibition) at 10uM [%]"
1,CC(C)CC(=O)Nc1nnc(CCc2ccccc2)s1,1.75
2,N#Cc1ccc(COC(=O)c2cc(=O)c3ccccc3o2)cc1,12.9
3,C/C(CC(=O)Nc1ccc(Cl)c(C(F)(F)F)c1)=N\NC(N)=S,-16.8
4,COc1cc(/C=C2\CC/C(=C\c3cc(OC)c(O)c(OC)c3)C2=O)cc(OC)c1O,0.669
5,O=S(=O)(Cc1ccccc1)N1CCC(c2nc(-c3cccs3)no2)CC1,-8.76
6,CC(=O)Oc1ccccc1C1OCCN1C(C)=O (stereo not shown),0.847
7,CS(=O)(=O)N(Cc1ccccc1)c1ccc(C(=O)NCCSc2ccccn2)cc1,-15.8
8,Oc1c(Br)cc(Br)cc1CNc1ccc(F)cc1,9.71
9,O=C(Nc1cccc(NS(=O)(=O)c2ccc(S(=O)(=O)NC3CC3)cc2)c1)c1ccccn1,0.802
10,COc1ccc(-c2noc3c2-c2nc(-c4ccc(Br)cc4)sc2CC3)cc1,10.7
11,CCSc1nnc2n(-c3ccc(OC)cc3)c(=O)c3c4c(sc3n12)CCCC4,-6.75
12,O=C(COC(=O)C1CC2CCCC(C1)C2=O)NC(=O)c1ccc(OC(F)F)cc1 (stereo not shown),23.2
13,O=C(CSc1nc2[nH]c(=O)cc(O)c2s1)Nc1cccc(Br)c1,13.6
14,COc1ccc(O)c(/C=N/c2nc3ccccc3n2C)c1,-22.9
15,Cc1ccc(SCCC(=O)Nc2ccc(OCc3ccccc3)cc2)cc1,13.4
16,Cc1nnc(Nc2ccc(Cl)c(C(F)(F)F)c2)[nH]c1=O,9.01
17,O=C(Cn1nc(-c2ccccc2)c2ccccc2c1=O)NCC1CCCO1 (stereo not shown),9.05
18,O=C1C2C3C=CC(C3=C3CCCCC3)C2C(=O)N1Cc1ccccc1 (stereo not shown),1.43
19,OCCC1CN(Cc2ccc3nonc3c2)CCN1Cc1ccsc1 (stereo not shown),-66.1
20,Cc1nnsc1C(=O)NNc1c(Cl)cccc1Cl,17.3
21,CCCNC(=O)CN1C(=O)NC2(CCCc3cc(OC)ccc32)C1=O (stereo not shown),-7.72
22,COc1ccc(C(=O)NC(=S)NNC(=O)c2cccc(C)c2)cc1,21.5

row,SMILES,"hERG current change (%, negative = inhibition) at 10uM [%]"
1,O=C(c1ccc(F)cc1)N1CCC(N2CCCCCC2)CC1,-26
2,NS(=O)(=O)c1ccc(NC(=S)NC(=O)c2ccco2)cc1,4.4
3,Cc1ccc(-n2c(N)c(C(=O)NCc3ccco3)sc2=S)cc1,-20.4
4,CN1CCN(c2ccc(Cl)cc2NC(=O)CN2C(=O)NC(C)(c3ccccc3)C2=O)CC1 (stereo not shown),-23.7
5,CCCS(=O)(=O)N1CCC(C(=O)NCCN(CC)c2ccccc2)CC1,-13.5
6,COc1cccc2cc(C(=O)N3CCN(c4ccc(C)cc4C)CC3)c(=O)oc12,-6.72
7,CC(=O)Nc1ccc(NC(=O)COc2ccc(S(=O)(=O)N3CCCC3)cc2C)cc1,11.5
8,CC(C)OCCCNC(=O)C(Cc1ccccc1)NS(=O)(=O)c1ccc2c(c1)CCC(=O)N2 (stereo not shown),14.5
9,Cc1ccc2nc3c(cc2c1)c(NC(=O)C1CCCO1)nn3CC(C)C (stereo not shown),-7.69
10,COc1ccc(Nc2nnc(-c3ccc(O)cc3)c3ccccc23)cc1,-64.8
11,COC(=O)C(C)Sc1nc2c([nH]c3ccccc32)c(=O)n1C (stereo not shown),-18.5
12,Cc1ccc2c(c1)N(CC(=O)N1CCCCC1c1cccnc1)C(=O)CO2 (stereo not shown),-15.7
13,OCC1(CCOc2ccccc2)CCN(Cc2ccncc2)CC1,-41.5
14,CCOC(=O)Cc1csc(NC(=O)CSc2nnc(-c3ccc(C)cc3)o2)n1,5.26
15,CCCCC(=O)Nc1nc(C)c(-c2csc(Nc3ccccc3OC)n2)s1,-0.735
16,Nc1nn(-c2ccccc2)nc1C(=O)OCc1ccccc1F,13
17,O=C(OCc1nc2ccccc2[n+]([O-])c1C(=O)c1ccccc1)c1ccco1,6.61
18,CN(Cc1ccccc1)C(=O)COC(=O)CNS(=O)(=O)c1ccc2ccccc2c1,-31.5
19,COCCNCCOc1ccccc1-c1ccccc1.O=C(O)C(=O)O,-9.52
20,COC(=O)c1c(NC(=O)C(=O)N2CCOCC2)sc2c1CCCC2,7.47
21,O=C(/C=C/c1c(Cl)nc2ccccn12)N1CCCCC1,2.54
22,CCOc1ccc(OCCCC(=O)NCCOc2ccccc2OC)cc1,-43.9

row,SMILES,"hERG current change (%, negative = inhibition) at 10uM [%]"
1,Cc1cc(C)cc(-n2c(C)cc(/C=N\NC(=O)COc3cccc4cccnc34)c2C)c1,22.3
2,Cc1cc(NC(=O)c2ccc(Cn3nc(C)c(Br)c3C)o2)no1,0.704
3,Cc1ccc(SCC(=O)c2ccc[nH]2)cc1,-8.95
4,COC(=O)C(Cc1ccc(OC(=O)c2ccccc2Cl)cc1)N1Cc2ccccc2C1=O (stereo not shown),0.977
5,O=C(Nc1ccccc1N1CCCC1)c1ccccc1F,-3.26
6,COc1ccc(S(=O)(=O)N2CCC(C(=O)Nc3cccc(C(C)=O)c3)CC2)cc1C,-7.61
7,c1ccc(Nc2nnc(SCc3cccc4ccccc34)s2)cc1,12.5
8,O=C(Nc1ccc(Br)cc1)N1CCCC(O)C1 (stereo not shown),6.54
9,CCSc1nnc(NC(=O)CSc2nnc(-c3c[nH]c4ccccc34)n2CC)s1,12.5
10,Cc1ccc(NC(=O)CCn2cnc3ccccc3c2=O)c(C)c1,6.65
11,CCOC(=O)c1c(C)[nH]c2cc(Br)c(O)cc12,14.6
12,CC(=O)N1CCN(CC(=O)Nc2ccc(C)c(S(=O)(=O)N(C)C)c2)CC1,17.7
13,CC(Sc1nnc(-c2ccccc2F)n1C1CC1)C(N)=O (stereo not shown),10.5
14,O=C(Cn1ccc(NC(=O)OCc2ccccc2)nc1=O)NCc1ccc2[nH]ccc2c1,2.18
15,Cc1ccc(S(=O)(=O)N(C)c2ccc(OCC(=O)N3CCCC(C(F)(F)F)C3)cc2)cc1 (stereo not shown),-39.9
16,C/C(=N\NC(=O)c1cccc(N/N=C(\C)c2ccc([N+](=O)[O-])cc2)c1)c1ccc([N+](=O)[O-])cc1,1.39
17,O=C(O)C(=O)O.OC(CNC1CCCCCC1)COc1cccc2ccccc12 (stereo not shown),-22.3
18,COc1cccc(NC(=O)CN2C(=O)COc3ccc(S(=O)(=O)N4CCOCC4)cc32)c1,15.6
19,CC(C)(C)CN1CCNC(=O)C1CC(=O)N1CCOc2ccccc2C1 (stereo not shown),22.3
20,Cc1csc(=O)n1CC(=O)OCC(=O)Nc1cc(Cl)ccc1[N+](=O)[O-],-17.8
21,N#Cc1cccc(NC(=O)c2cncn2-c2ccccc2)c1,12.4
22,Cc1ccc(C2CC(c3ccccc3)n3ncnc3N2)cc1 (stereo not shown),-1.18

row,SMILES,"hERG current change (%, negative = inhibition) at 10uM [%]"
1,COC(=O)C(C)Sc1nnc(-c2ccncc2)o1 (stereo not shown),-28.8
2,Nc1ccc(C(=O)CC(=O)Nc2ccc(Cl)cc2)cc1,-3.34
3,COc1ccc(S(=O)(=O)N2CCN(CC(=O)Nc3ccccc3Cl)CC2)cc1,-1.6
4,COc1ccc(C)cc1NC(=O)C(Sc1nnc(Nc2ccccc2F)s1)c1ccccc1 (stereo not shown),11.1
5,O=C(CCc1ccccc1F)N1CCN(c2ccc(C(F)(F)F)cn2)CC1,18.2
6,Cc1c(Cc2c(C)n(C)n(-c3ccccc3)c2=O)c(=O)n(-c2ccccc2)n1C,3.53
7,COc1ccc(CN2C(=O)CN=C2Nc2ccc(C)cc2C)cc1.Cl,-13.1
8,O=C(c1ccc(S(=O)(=O)c2ccc(Cl)cc2)cc1)N1CCOCC1,-21.9
9,Nc1cc(Cl)ccc1N1C(=O)CCC1=O,20.2
10,CCCn1c(C)cc(C(=O)COC(=O)c2ccc(Cl)c(S(=O)(=O)N3CCCC3)c2)c1C,9.17
11,CC(C)Cn1c(-c2csc(C(C)C)c2)n[nH]c1=S,14.4
12,CC1(C)Cc2nc3oc4c(NCc5ccccc5)ncnc4c3cc2CO1,-10.7
13,COc1ccc(CN2C(=O)c3ccccc3C(/C=N/OCc3ccc(Cl)cc3)C2=O)cc1 (stereo not shown),6.39
14,Cc1cc(O)c(C(=O)/C=C/c2ccccc2Br)c(=O)o1,26
15,O=C(CCCN1C(=O)CCC1=O)Nc1ccc(Cl)c(C(F)(F)F)c1,-18.8
16,CC(C)CC(=O)Nc1ccc(C(=O)Cn2c(=O)oc3ccccc32)cc1,7.47
17,COc1ccccc1NC(=O)c1ccc(Cl)c(S(=O)(=O)NCc2ccco2)c1,-37.7
18,O=C1c2ccccc2S(=O)(=O)N1Cc1ccccc1[N+](=O)[O-],16.3
19,O=C(CSc1nnc(-c2ccccc2)o1)c1ccc2c(c1)OCCO2,3.15
20,CCN(CC#CCC(O)(c1ccccc1)C1CCCC1)C(C)C.Cl (stereo not shown),-18.9
21,CC(C)c1ccc(/C=N/Nc2cc(N3CCOCC3)nc(N3CCOCC3)n2)cc1,-3.41
22,COc1cc(CNCCN(C)C)c(Br)cc1OCC(=O)NCc1ccccc1,-29.2
